# From the supplement of paper PMC8728848
# Some of the results follow.
# How the values were obtained:
# Assay in all cases: glycan array binding signal (z-score within array); higher = stronger binding
# Settings in all cases: glycan notation: IUPAC condensed, linker removed
# [1] = target: Fuc(a1-2)Gal
# Method in brief: (§1)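 Arrays were curated from the Consortium for Functional Glycomics database, 3228 in total, and kept only where the protein sequence was available. Binding is expressed as a within-array Z-score. This score was averaged across arrays of the same protein sequence at different concentrations or buffers and across linkers, and negative values can be read as non-binding.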
# [2] = target: Fuc(a1-2)Gal(b1-3)GalNAc
# Method in brief: as §1
# [3] = target: Fuc(a1-2)Gal(b1-3)GalNAc(a1-3)[Fuc(a1-2)]Gal(b1-4)Glc
# Method in brief: as §1
# [4] = target: Fuc(a1-2)Gal(b1-3)GalNAc(a1-3)[Fuc(a1-2)]Gal(b1-4)GlcNAc
# Method in brief: as §1
# [5] = target: Fuc(a1-2)Gal(b1-3)GalNAc(b1-3)Gal
# Method in brief: as §1
# [6] = target: Fuc(a1-2)Gal(b1-3)GalNAc(b1-3)Gal(a1-4)Gal(b1-4)Glc
# Method in brief: as §1
# [7] = target: Fuc(a1-2)Gal(b1-3)GalNAc(b1-4)[Neu5Ac(a2-3)]Gal(b1-4)Glc
# Method in brief: as §1
# [8] = target: Fuc(a1-2)Gal(b1-3)GlcNAc
# Method in brief: as §1
# [9] = target: Fuc(a1-2)Gal(b1-3)GlcNAc(b1-2)Man(a1-3)[Fuc(a1-2)Gal(b1-3)GlcNAc(b1-2)Man(a1-6)]Man(b1-4)GlcNAc(b1-4)GlcNAc
# Method in brief: as §1
# [10] = target: Fuc(a1-2)Gal(b1-3)GlcNAc(b1-2)Man(a1-3)[Fuc(a1-2)Gal(b1-3)GlcNAc(b1-2)Man(a1-6)]Man(b1-4)GlcNAc(b1-4)[Fuc(a1-6)]GlcNAc
# Method in brief: as §1
# [11] = target: Fuc(a1-2)Gal(b1-3)GlcNAc(b1-3)Gal(b1-4)Glc
# Method in brief: as §1
# [12] = target: Fuc(a1-2)Gal(b1-3)GlcNAc(b1-3)GalNAc
# Method in brief: as §1
# [13] = target: Fuc(a1-2)Gal(b1-3)GlcNAc(b1-3)[Fuc(a1-2)Gal(b1-3)GlcNAc(b1-6)]GalNAc
# Method in brief: as §1
# [14] = target: Fuc(a1-2)Gal(b1-3)GlcNAc(b1-3)[Gal(b1-4)GlcNAc(b1-6)]Gal(b1-4)Glc
# Method in brief: as §1
# [15] = target: Fuc(a1-2)Gal(b1-3)GlcNAc(b1-3)[Neu5Ac(a2-6)Gal(b1-4)GlcNAc(b1-6)]Gal(b1-4)Glc
# Method in brief: as §1
# [16] = target: Fuc(a1-2)Gal(b1-3)GlcNAc6S
# Method in brief: as §1
# [17] = target: Fuc(a1-2)Gal(b1-3)[Fuc(a1-4)]GlcNAc
# Method in brief: as §1
# [18] = target: Fuc(a1-2)Gal(b1-3)[Fuc(a1-4)]GlcNAc(b1-2)Man(a1-3)[Fuc(a1-2)Gal(b1-3)[Fuc(a1-4)]GlcNAc(b1-2)Man(a1-3)]Man(b1-4)GlcNAc(b1-4)GlcNAc
# Method in brief: as §1
# [19] = target: Fuc(a1-2)Gal(b1-3)[Fuc(a1-4)]GlcNAc(b1-2)Man(a1-3)[Fuc(a1-2)Gal(b1-3)[Fuc(a1-4)]GlcNAc(b1-2)Man(a1-6)]Man(b1-4)GlcNAc(b1-4)[Fuc(a1-6)]GlcNAc(b1-4)[Fuc(a1-6)]GlcNAc
# Method in brief: as §1
# [20] = target: Fuc(a1-2)Gal(b1-3)[Fuc(a1-4)]GlcNAc(b1-3)[Fuc(a1-3)[Gal(b1-4)]GlcNAc(b1-6)]Gal(b1-4)Glc
# Method in brief: as §1
# [21] = target: Fuc(a1-2)Gal(b1-3)[Fuc(a1-4)]GlcNAc(b1-3)[Gal(b1-4)GlcNAc(b1-6)]Gal(b1-4)Glc
# Method in brief: as §1
# [22] = target: Fuc(a1-2)Gal(b1-4)Glc
# Method in brief: as §1
# [23] = target: Fuc(a1-2)Gal(b1-4)Glc6S
# Method in brief: as §1
# [24] = target: Fuc(a1-2)Gal(b1-4)GlcNAc
# Method in brief: as §1
# [25] = target: Fuc(a1-2)Gal(b1-4)GlcNAc(b1-2)Man
# Method in brief: as §1
# [26] = target: Fuc(a1-2)Gal(b1-4)GlcNAc(b1-2)Man(a1-3)[Fuc(a1-2)Gal(b1-4)GlcNAc(b1-2)Man(a1-6)]Man(b1-4)GlcNAc(b1-4)GlcNAc
# Method in brief: as §1
# [27] = target: Fuc(a1-2)Gal(b1-4)GlcNAc(b1-2)Man(a1-3)[Fuc(a1-2)Gal(b1-4)GlcNAc(b1-2)Man(a1-6)]Man(b1-4)GlcNAc(b1-4)[Fuc(a1-6)]GlcNAc
# Method in brief: as §1
# [28] = target: Fuc(a1-2)Gal(b1-4)GlcNAc(b1-2)[Fuc(a1-2)Gal(b1-4)GlcNAc(b1-4)]Man(a1-3)[Fuc(a1-2)Gal(b1-4)GlcNAc(b1-2)Man(a1-6)]Man(b1-4)GlcNAc(b1-4)GlcNAc
# Method in brief: as §1
# [29] = target: Fuc(a1-2)Gal(b1-4)GlcNAc(b1-3)Gal(b1-4)GlcNAc
# Method in brief: as §1
# [30] = target: Fuc(a1-2)Gal(b1-4)GlcNAc(b1-3)Gal(b1-4)GlcNAc(b1-2)Man(a1-3)[Fuc(a1-2)Gal(b1-4)GlcNAc(b1-3)Gal(b1-4)GlcNAc(b1-2)Man(a1-6)]Man(b1-4)GlcNAc(b1-4)GlcNAc
# Method in brief: as §1
binder,measurement,setting,value
Thrombomodulin (Mus musculus) (protein) ALAKLQPTGSQCVEHECFALFQGPATFLDASQACQRLQGHLMTVRSSVAADVISLLLSQSSMDLGPWIGLQLPQGCDDPVHLGPLRGFQWVTGDNHTSYSRWARPNDQTAPLCGPLCVTVSTATEAAPGEPAWEEKPCETETQGFLCEFYFTASC,glycan array binding signal (z-score),[1],-0.097
same,glycan array binding signal (z-score),[2],-0.11
same,glycan array binding signal (z-score),[3],0.003
same,glycan array binding signal (z-score),[4],-0.25
same,glycan array binding signal (z-score),[5],-0.118
same,glycan array binding signal (z-score),[6],0.268
same,glycan array binding signal (z-score),[7],-0.317
same,glycan array binding signal (z-score),[8],-0.262
same,glycan array binding signal (z-score),[9],0.05
same,glycan array binding signal (z-score),[10],0.263
same,glycan array binding signal (z-score),[11],-0.119
same,glycan array binding signal (z-score),[12],-0.228
same,glycan array binding signal (z-score),[13],-0.155
same,glycan array binding signal (z-score),[14],-0.012
same,glycan array binding signal (z-score),[15],0.033
same,glycan array binding signal (z-score),[16],-0.284
same,glycan array binding signal (z-score),[17],0.227
same,glycan array binding signal (z-score),[18],0.555
same,glycan array binding signal (z-score),[19],0.279
same,glycan array binding signal (z-score),[20],-0.334
same,glycan array binding signal (z-score),[21],-0.262
same,glycan array binding signal (z-score),[22],-0.284
same,glycan array binding signal (z-score),[23],0.107
same,glycan array binding signal (z-score),[24],0.024
same,glycan array binding signal (z-score),[25],-0.155
same,glycan array binding signal (z-score),[26],0.124
same,glycan array binding signal (z-score),[27],0.049
same,glycan array binding signal (z-score),[28],0.223
same,glycan array binding signal (z-score),[29],-0.275
same,glycan array binding signal (z-score),[30],-0.145
